# About 1,800 (2.5%) of roughly 73,000 compounds were called active. Inconclusive results, whose numbers are uncertain, are shown with a selection of clear calls. The call rests on the fitted dose curve; in most records, active means well fitted activation curve with a large enough effect; inconclusive means small, poorly fitted or top-dose-only effect; inactive means no such curve, though single readings can be large or run the other way. No potency is given beside an inconclusive call; the fits are too rough.
# Test: qHTS Assay for Agonists of the Thyroid Stimulating Hormone Receptor: Activators of Intracellular cAMP Concentrations in Parental HEK 293; further: nearly all actives have a fitted effect of over 55% in size; on activation: % of control where 0% means no effect
# Conditions: parental HEK293 CNG cAMP sensor, membrane potential fluorescence; activation: at 57.1 µM (top of the series) unless noted
# Procedure, shortened: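 Counterscreen for endogenous-receptor signalling: CNG-channel HEK 293 cells report cAMP rise by membrane depolarization. After 60 min dye equilibration with 100 uM RO 20-1724, compounds incubated 30 min before bottom-read fluorescence at 590 nm.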
# Potency means the concentration at half of the fitted maximal effect; tags describe the fitted curve by direction and shape.
Structure (SMILES),Potency,activation
CCOC(=O)Cc1csc(NC(=O)CSc2nnc(-c3ccncc3)n2Cc2ccco2)n1,"inconclusive [activator, single point]",
Clc1ccccc1-c1ccc2ncnc(NCc3cccnc3)c2c1,"inconclusive [activator, partial curve]",
CCc1ccc(OC(=O)c2ccn(CC)n2)cc1,,inactive: 4.08%
COc1ccc(-n2c(=O)c(-c3cn(C)c4ccccc34)nc3cncnc32)cc1,,inactive: 9.9%
CC(C)(C)n1nc2c(c1NC(=O)c1cccs1)CS(=O)C2 (stereo not given),"inconclusive [activator, single point]",
COc1ccc(N2C(=O)C3CCCN3C2c2ccccc2F)cc1 (stereo not given),"inconclusive [activator, single point]",
N=C1N=C(N)c2cc3ccccc3cc21,,inactive: -0.963%
N#Cc1cccc(-c2nc3cnc(N4CCNCC4)nc3n(C3CC3)c2=O)c1,"inconclusive [activator, single point]",
CCOc1ccc2[nH]c(=O)c(C(c3nnnn3Cc3ccco3)N3CCCC(C)C3)cc2c1 (stereo not given),active: 7.94 µM,
CCNC(=O)CN(Cc1ccccc1)S(=O)(=O)c1ccccc1,"inconclusive [activator, single point]",
CCc1ccc2oc(=O)cc(CN3CCN(c4ccc(F)cc4)CC3)c2c1,"inconclusive [activator, full curve, poor fit]",
CN(Cc1ccco1)c1ncncc1-c1ccccc1Cl,,inactive: 4.52%
CC(C)c1cc(C(=O)NC2CCCCC2)no1,"inconclusive [activator, partial curve]",
Cn1c(C(=O)N2COCC2(C)C)cc2c(=O)n3ccccc3nc21,"inconclusive [activator, single point]",
O=[N+]([O-])c1ccc(NN=C2c3ccccc3Cc3ccccc32)c([N+](=O)[O-])c1,,inactive: -2.7% [at 11.4 µM]
CCCCNc1nc(C)nc2c1nc(-c1ccccc1)n2CCN(C)C,active: 25.1 µM,
O=C(CN1C(=O)C2CC=CCC2C1=O)Nc1nccs1 (stereo not given),"inconclusive [activator, single point]",
Cc1cc(N2CCCC2=O)cc(C)c1CN1C(=O)c2ccccc2C1=O,"inconclusive [activator, partial curve]",
N#C/C(=C(/O)COC(=O)Cc1c[nH]c2ccccc12)c1nc2ccccc2[nH]1,"inconclusive [activator, partial curve]",
COc1ccc(C2=NOC(C(=O)Nc3ccc(C)cc3)C2)cc1OC (stereo not given),,inactive: 4.69%
CC/C=C/C/C=C/C/C=C/CCCCCCCC(=O)OCC,"inconclusive [activator, full curve, poor fit]",
CCCc1nnc(NC(=O)C(C)N2C(=O)C3C4C=CC(C4)C3C2=O)s1 (stereo not given),"inconclusive [activator, partial curve]",
CCn1c(SCC(=O)NC2CCCCC2)nc2c(c1=O)SC(C)C2 (stereo not given),"inconclusive [activator, partial curve]",

Structure (SMILES),Potency,activation
COc1ccc(O[C@H]2C=C[C@@H](c3ccccc3)O[C@@H]2CO/N=C\[C@@H](C)[C@H](OCc2ccccc2)C(C)C)cc1,,inactive: 15.1% [at 11.4 µM]
Cc1ccc(Nc2nc(C(=O)N3CCC(C(=O)N4CCN(C)CC4)CC3)cs2)cc1,"inconclusive [activator, single point]",
CC(C)(C)n1nnnc1C(c1cccs1)N1CCN(Cc2ccccc2)CC1 (stereo not given),"inconclusive [activator, single point]",
COc1ccc(N2CCN(Cc3cc(=O)oc4c3ccc3ccccc34)CC2)cc1,,inactive: -8.59%
CCCCCCc1ccc(-c2ccc(C#N)cc2)cc1,"inconclusive [activator, single point]",
Fc1ccc(C(c2nnnn2Cc2ccco2)N2CCN(C3CCCCC3)CC2)cc1 (stereo not given),"inconclusive [activator, full curve]",
CSc1nnc2c3ccccc3n(CCc3ccccc3)c2n1,active: 3.98 µM,
COc1ccc(NC(=O)CSc2nnc(CNC(=O)c3ccco3)n2-c2ccccc2OC)cc1,,inactive: -6.33%
O=C(COC(=O)c1cn(-c2ccccc2)nc1-c1cccs1)NC1CC1,"inconclusive [activator, single point]",
Cc1ccc(CN(C(=O)Cn2nnc3ccccc32)C(C(=O)NCc2ccco2)c2cccs2)cc1 (stereo not given),"inconclusive [activator, partial curve]",
CCc1ccccc1NC1c2ccccc2C(=O)N1Cc1ccco1 (stereo not given),"inconclusive [activator, partial curve]",
C#CC(CO)N(CCN(Cc1ccccc1)C(C#C)CO)Cc1ccccc1 (stereo not given),"inconclusive [activator, partial curve]",
COc1cccc(-c2cc(C(=O)N3CCc4ccccc4C3)no2)c1,"inconclusive [activator, partial curve]",
c1coc(Cn2c(SCc3nc4ccccc4[nH]3)nnc2-c2cnccn2)c1,"inconclusive [activator, single point]",
COC(=O)c1cc(-c2ccc3c(c2)OCO3)nc2ccccc12,"inconclusive [activator, partial curve]",
CCC(Sc1nc2ccccc2s1)C(=O)Nc1nnc(C)s1 (stereo not given),active: 20 µM,
CCn1c(SCC(=O)c2ccccc2)nnc1-c1cc2cc(Br)ccc2o1,"inconclusive [activator, partial curve]",
CCOC(=O)c1cnc2c(C)cccc2c1NCc1ccco1,active: 25.1 µM,
COC(=O)c1ccccc1S(=O)(=O)N(CCCN1CCOCC1)Cc1cccs1,"inconclusive [activator, single point]",
Cc1cc(Cl)ccc1OCC(=O)Nc1ccccc1N1CCOCC1,"inconclusive [activator, single point]",
O=C1CC(Sc2nnnn2C2CCCCC2)C(=O)N1c1ccccc1 (stereo not given),,inactive: 15.5%
CN(Cc1c(F)cccc1Cl)c1ccc(S(=O)(=O)N2CCOCC2)cn1,"inconclusive [activator, single point]",

# Reference: PubChem BioAssay AID938 (National Center for Advancing Translational Sciences (NCATS), 2007)
